In PubChem BioAssay AID588591 (National Center for Advancing Translational Sciences (NCATS), 2011):
The campaign covered roughly 390,000 compounds. About 4,700 (1.2%) were called active. Inconclusive results, whose numbers are uncertain, are shown with a selection of clear calls. The call rests on the fitted dose curve; in most records, active means well fitted inhibition curve with a large enough effect; inconclusive means small, poorly fitted or top-dose-only effect, or another doubt; inactive means no such curve, though single readings can be large or run the other way. A potency beside an inconclusive call is a rough fit, not a confirmed value.

molecular target: DNA polymerase eta (Homo sapiens) (UniProt Q9Y253); test: qHTS for Inhibitors of Polymerase Eta; settings: recombinant Pol eta, fluorescent DNA replication assay; series mostly up to 114 µM
Summary of the method: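 Fluorescent replication assay: 50 nM final substrate added after a 15 min room-temperature compound preincubation with 10 nM enzyme. Signal taken at 0 min and again at 10 min.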
Potency means the concentration at half of the fitted maximal effect; tags describe the fitted curve by direction and shape.

UniProt Q9Y253, sequence (Q9Y253 whole entry, looked up): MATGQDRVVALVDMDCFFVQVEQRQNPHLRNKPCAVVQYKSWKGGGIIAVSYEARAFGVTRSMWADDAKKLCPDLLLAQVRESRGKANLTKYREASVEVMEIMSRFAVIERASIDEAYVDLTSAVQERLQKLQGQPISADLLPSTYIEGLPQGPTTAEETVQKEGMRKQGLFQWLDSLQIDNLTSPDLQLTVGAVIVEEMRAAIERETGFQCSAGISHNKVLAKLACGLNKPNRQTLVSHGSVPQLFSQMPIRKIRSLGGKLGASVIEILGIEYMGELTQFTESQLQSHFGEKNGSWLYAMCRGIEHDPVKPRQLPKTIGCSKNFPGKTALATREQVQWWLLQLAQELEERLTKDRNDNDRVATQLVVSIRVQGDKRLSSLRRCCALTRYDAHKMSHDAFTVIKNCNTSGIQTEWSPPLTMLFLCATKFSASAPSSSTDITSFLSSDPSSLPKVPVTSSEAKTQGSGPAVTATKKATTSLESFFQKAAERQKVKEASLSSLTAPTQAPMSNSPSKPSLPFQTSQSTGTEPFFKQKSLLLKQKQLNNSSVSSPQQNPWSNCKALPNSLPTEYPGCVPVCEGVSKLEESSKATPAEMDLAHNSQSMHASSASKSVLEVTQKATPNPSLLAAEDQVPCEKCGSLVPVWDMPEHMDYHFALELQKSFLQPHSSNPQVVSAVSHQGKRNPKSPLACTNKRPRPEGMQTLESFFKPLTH

| SMILES | Potency |
| --- | --- |
| O=C(Nc1nc2ccc(F)cc2s1)C1CCN(S(=O)(=O)c2cc([N+](=O)[O-])ccc2Cl)CC1 | inconclusive: 14.1 µM [inhibitor, full curve] |
| COc1cc(NC(=O)c2cccs2)c(C(=O)OCC(=O)NCc2ccco2)cc1OC | active: 10 µM |
| CSc1nsc(SCC(=O)Nc2ccc(Br)cn2)n1 | inconclusive: 14.1 µM [inhibitor, full curve, poor fit] |
| O=[N+]([O-])c1ccc(NN=Cc2ccc(O)cc2)nc1 | inconclusive: 79.4 µM [inhibitor, partial curve] |
| CC(=O)c1ccc(S(=O)(=O)N2CCN(C(=O)/C=C/c3ccc4ccccc4n3)CC2)cc1 | active: 39.8 µM |
| COc1cc(/C=N/NC(=O)CCC(=O)NCc2ccccc2)cc(OC)c1OC | inconclusive: 89.1 µM [inhibitor, partial curve, poor fit] |
| NC(=O)C1(N2CCCCC2)CCN(C(=O)CSc2nc3ccccc3[nH]2)CC1 | inconclusive: 22.4 µM [inhibitor, partial curve] |
| Cc1ccc(OCCSc2nc3ccccc3n2CC(=O)N2CCOCC2)c(C)c1 | inactive |
| Cc1n[nH]c(C)c1CCc1nc2c3ccccc3nc(SCC(=O)Nc3ccccc3F)n2n1 | inconclusive: 39.8 µM [inhibitor, single point] |
| O=C1N(c2ccccc2C(F)(F)F)OC1(Cc1ccccc1)c1ccccc1 (configuration not stated) | inconclusive: 89.1 µM [inhibitor, partial curve, poor fit] |
| COC(=O)CCC(=O)NC(=S)Nc1ccccc1F | inactive |
| COc1cccc(=O)c2c(C)n(-c3cc(C)cc(C)c3)c(C)c12 | inconclusive: 39.8 µM [inhibitor, partial curve, poor fit] |
| N#CC(C(=O)Nc1ccc(Cl)c(Cl)c1)=C1Nc2ccccc2N1 | inconclusive: 20 µM [inhibitor, full curve, poor fit] |
| COc1ccc(C(=O)CCc2ccc(OC)c(OC)c2)cc1 | inconclusive: 25.1 µM [inhibitor, single point] |
| NC(=S)n1[nH]c(-c2ccc([N+](=O)[O-])cc2)c(N=Nc2cccc(Cl)c2)c1=O | active: 39.8 µM |
| COCC(=O)N(C)C1(c2nnnn2CCOC(=O)Nc2cccc3ccccc23)CCCC1 | inconclusive: 17.8 µM [inhibitor, partial curve, poor fit] |
| N#Cc1ccc(-c2cccs2)nc1SCc1ccc(Cl)cc1Cl | inactive |
| O=C(O)CCc1ccc(-c2cccs2)n1-c1ccc(C(=O)O)cc1 | active: 31.6 µM |
| Cc1cc(C)c2c(=O)cc(C(=O)Nc3ccc(S(=O)(=O)Nc4nc(C)cc(C)n4)cc3)oc2c1 | inconclusive: 89.1 µM [inhibitor, single point] |
| CCc1ccc(NC(=S)/N=C(\N)Nc2nc(C)c3cc(CC)ccc3n2)cc1 | inactive |
| Cc1nc(NCc2ccco2)c2c(C)c(C)sc2n1 | inactive |
| N#Cc1ccc(OCC(=O)Nc2nc(-c3cccnc3)cs2)cc1 | active: 50.1 µM |
| Cc1ccc(NC(=O)Cn2c(CCC(=O)O)ccc2-c2cccs2)cc1 | active: 79.4 µM |

| SMILES | Potency |
| --- | --- |
| O=C1c2ccccc2C(=O)C1c1ccccn1 | inconclusive: 79.4 µM [inhibitor, partial curve, poor fit] |
| COc1ccc(S(=O)(=O)Nc2ccc3c(c2)N(C(C)=O)CCC3)cc1 | inactive |
| COCCCn1c(=N)c(C(N)=S)cc2c(=O)n3cccc(C)c3nc21 | inconclusive: 28.2 µM [inhibitor, full curve] |
| CC(C)Oc1ccc(C(=O)N/N=C/c2ccc(-c3ccc(S(=O)(=O)Nc4ncccn4)cc3)o2)cc1 | active: 2.82 µM |
| Cc1c(CCC(=O)O)c(=O)oc2c(C)c3occ(-c4ccc(Cl)cc4)c3cc12 | active: 22.4 µM |
| Cc1ccc(C2=N/C(=C\c3cccs3)C(=O)N2Nc2ccccc2)cc1 | inconclusive: 39.8 µM [inhibitor, partial curve, poor fit] |
| CN(C)c1ccc(NC(=O)COC(=O)c2cc(Cl)ccc2[N+](=O)[O-])cc1 | inconclusive: 89.1 µM [inhibitor, partial curve, poor fit] |
| COC1CCCN(C(=O)c2ccc(OC3CCN(CCc4ccccc4)CC3)cc2)C1 (configuration not stated) | inactive |
| O=C1SC(SCc2ccccc2Cl)=N/C1=C\c1ccc(C(=O)O)cc1 | active: 50.1 µM |
| Nc1cc2c(cc1Br)[nH]c(=O)c1ccccc12 | inconclusive: 14.1 µM [inhibitor, partial curve] |
| COc1ccc(NC(=O)C2CCN(S(=O)(=O)c3ccc4c(c3)NC(=O)C(C)S4)CC2)cc1 (configuration not stated) | inactive |
| CN(CC(=O)Nc1cccc(F)c1)CC(=O)N1CCc2ccccc21 | inconclusive: 100 µM [inhibitor, partial curve, poor fit] |
| CCOC(=O)c1c(C)[nH]c(C)c1S(=O)(=O)NC(C)Cc1ccco1 (configuration not stated) | inconclusive: 89.1 µM [inhibitor, partial curve, poor fit] |
| COc1ccc2nc(C)cc(SCC(=O)N/N=C/c3ccc(O)c(O)c3)c2c1 | active: 4.47 µM |
| O=C(Nc1nc(-c2cccs2)c(C(=O)C(F)(F)F)s1)c1ccccc1 | inconclusive: 79.4 µM [inhibitor, partial curve, poor fit] |
| O=C(O)c1cccc(NC(=O)c2cn(-c3ccccc3)nc2-c2cc3ccccc3o2)c1 | inconclusive: 20 µM [inhibitor, full curve, poor fit] |
| COc1ccc(NC(=O)/C=C/c2ccco2)cn1 | inactive |
| Nc1c(O)ccc2c1C(=O)c1ccccc1C2=O | inconclusive: 17.8 µM [inhibitor, full curve, poor fit] |
| O=C(/C=C/c1ccc(S(=O)(=O)NCc2ccco2)cc1)NCc1cccc(Cl)c1 | inconclusive: 39.8 µM [inhibitor, partial curve, poor fit] |
| Cc1cc(=O)oc2cc(OCC(=O)NCCc3nc4ccccc4[nH]3)ccc12 | inconclusive: 79.4 µM [inhibitor, partial curve] |
| Nc1sc2c(c1C(=O)NC1CCS(=O)(=O)C1)CCC2 (configuration not stated) | active: 17.8 µM |
| COc1ccc(S(=O)(=O)Nc2ccc(O)c(Sc3nc4ccccc4s3)c2)cc1 | inconclusive: 20 µM [inhibitor, single point] |
| CC(C)C[C@@H](CO)N(Cc1ccccc1)S(=O)(=O)N(Cc1ccccc1)[C@@H](CO)CC(C)C | inconclusive: 44.7 µM [inhibitor, partial curve, poor fit] |

| SMILES | Potency |
| --- | --- |
| O=C(O)CCC(=O)NN1C(=O)c2ccccc2NC1c1ccco1 (configuration not stated) | inconclusive: 89.1 µM [inhibitor, partial curve, poor fit] |
| COc1ccc(N=C2NC(=O)/C(=C\c3ccco3)S2)cc1 | inconclusive: 56.2 µM [inhibitor, partial curve, poor fit] |
| CC(=O)c1ccc(NC(=O)CN2C(=O)/C(=C/C=C/c3ccccc3)SC2=S)cc1 | inconclusive: 25.1 µM [inhibitor, partial curve, poor fit] |
| O=C(COc1ccc(F)cc1Br)NCC1COc2ccccc2O1 (configuration not stated) | inconclusive: 89.1 µM [inhibitor, partial curve, poor fit] |
| COc1ccc(Cl)cc1CN1CCN(c2nc(C)cc(C)c2C#N)CC1 | inconclusive: 70.8 µM [inhibitor, partial curve, poor fit] |
| CCOc1ccccc1N1CCN(CC(=O)N(C2CCCC2)C2CCS(=O)(=O)C2)CC1 (configuration not stated) | inactive |
| Nc1cc2nsnc2cc1Br | active: 3.55 µM |
| Cc1nn(-c2ccccc2)c(C)c1C(=O)OC/C(O)=C(\C#N)c1nc2ccccc2[nH]1 | inconclusive: 31.6 µM [inhibitor, partial curve, poor fit] |
| CCC(C(=O)Nc1cccnc1Cl)c1ccccc1 (configuration not stated) | inactive |
| O=C1C(=Cc2ccncc2)CCCc2ccccc21 | inactive |
| CN(C)CCCNCCCNC(=O)/C(=N\O)c1ccccc1 | inactive |
| O=C(CCC(=O)Nc1cccc(Cl)c1)N/N=C/c1cc([N+](=O)[O-])ccc1O | inconclusive: 79.4 µM [inhibitor, partial curve, poor fit] |
| CCOc1ccc2nc(Cl)c(C3CC(c4ccc(C)cc4)=NN3C(=O)CCCC(=O)O)cc2c1 (configuration not stated) | inconclusive: 89.1 µM [inhibitor, single point] |
| CCOc1ccc(C(=O)OCC(=O)NC(C)C)cc1 | inactive |
| COc1cccc(-n2c(SCC(=O)Nc3ccc4c(c3)CCC4)nc3ccccc3c2=O)c1 | inconclusive: 89.1 µM [inhibitor, partial curve, poor fit] |
| O=[N+]([O-])c1ccc(N/N=C/c2sc(N3CCOCC3)nc2-c2ccccc2)c(S(=O)(=O)Nc2ccccc2Cl)c1 | inconclusive: 50.1 µM [inhibitor, partial curve] |
| Cn1cccc1C(=O)OCC(=O)Nc1sccc1C#N | inconclusive: 28.2 µM [inhibitor, single point] |
| Cc1nc(NC(=O)c2cc3c(C)nn(-c4ccccc4)c3s2)sc1C(=O)Nc1ccccc1 | inconclusive: 50.1 µM [inhibitor, partial curve, poor fit] |
| COC(=O)c1cc2sccc2n1Cc1ccc(F)cc1 | inconclusive: 89.1 µM [inhibitor, partial curve, poor fit] |
| O=[N+]([O-])c1ccc2c(OCc3nnc(-c4ccccc4Br)o3)ncnc2c1 | inconclusive: 17.8 µM [inhibitor, partial curve, poor fit] |
| O=C(Cn1ncc2c3ccccc3n(Cc3ccccc3)c2c1=O)N1CCCCCC1 | inactive |
